# Results taken from patent publication US20250235531A1, “MUCOSAL ADMI[…] AND FORMULATIONS” (priority 2022, published 2025).
# Test system: HeLa cells
# Experiment: Luciferase protein expression assay in HeLa cells (ONE-Glo)
# Details: LNPs encapsulating Luciferase mRNA 25 ng per well, N=4, 5 h transfection, read after 24 h
# Description: Lipid nanoparticle compositions were prepared in a manner analogous to that in Example 27. To evaluate LNP cellular uptake and protein expression in vitro, HeLa cells from ATCC.org (ATCC CCL-2) are used. The cells are cultured in complete Minimum Essential Medium (MEM) and are plated in 96 well Cell Carrier Ultra plate with PDL coated surface (PerkinElmer) prior to running an experiment.
# Cells were transfected with buffer control (PBS) or LNPs encapsulating Luciferase mRNA (25 ng per well; N=4 replicate wells) in serum-free MEM media. LNP transfected cells were incubated for 5 h, followed by media removal and supplementation with complete MEM media. Cells were further incubated in complete MEM media overnight (24 h). Following the 24 hr incubation, luciferase protein expression was measured using the ONE-Glo™ Luciferase Assay (Promega). Cells were lysed using 1× Passive Lysis Buffer (Cat. #E194A) for 10 min in a microplate mixer at room temperature. Luciferase in the supernatant was measured by adding Luciferase Assay Reagent (Cat. #E151A) containing luciferin. Bioluminescence was then immediately measured on a Synergy H1 plate reader (BioTek). The results shown in Table 27 show the Average Relative Light Units (RLU) of each sample tested.
row,Compound,Average Relative Light Units ± Standard Deviation [Relative Light Units]
1,"CC(C)CCC[C@@H](C)[C@H]1CC[C@H]2[C@@H]3CC=C4C[C@@H](OC(=O)CCCC(=O)N(CCC5CC(N)C5)CCC5CC(N)C5)CC[C@]4(C)[C@H]3CC[C@]12C.Cl.Cl (stereo partly drawn) [SA188, (3S,8S,9S,10R,13R,14S,17R)-10,13-dimethyl-17-((R)-6-methylheptan-2-yl)-2,3,4,7,8,9,10,11,12,13,14,15,16,17-tetradecahydro-1H-cyclopenta[a]phenanthren-3-yl 5-(bis(2-(3-aminocyclobutyl)ethyl)amino)-5-oxopentanoate dihydrochloride]",19740.5 ± 4837
2,"CC[C@H](CC[C@@H](C)[C@H]1CC[C@H]2[C@@H]3CC=C4C[C@@H](OC(=O)N(CC56CC(N)(C5)C6)CC56CC(N)(C5)C6)CC[C@]4(C)[C@H]3CC[C@]12C)C(C)C.Cl.Cl [SA189, (3S,8S,9S,10R,13R,14S,17R)-17-((2R,5R)-5-ethyl-6-methylheptan-2-yl)-10,13-dimethyl-2,3,4,7,8,9,10,11,12,13,14,15,16,17-tetradecahydro-1H-cyclopenta[a]phenanthren-3-yl bis((3-aminobicyclo[1.1.1]pentan-1-yl)methyl)carbamate dihydrochloride]",386 ± 44.3
3,"CC[C@H](CC[C@@H](C)[C@H]1CC[C@H]2[C@@H]3CC=C4C[C@@H](OC(=O)N(CCCCNCCC(C)N)CCC(C)N)CC[C@]4(C)[C@H]3CC[C@]12C)C(C)C.Cl.Cl.Cl (stereo partly drawn) [SA111, (3S,8S,9S,10R,13R,14S,17R)-17-((2R,5R)-5-ethyl-6-methylheptan-2-yl)-10,13-dimethyl-2,3,4,7,8,9,10,11,12,13,14,15,16,17-tetradecahydro-1H-cyclopenta[a]phenanthren-3-yl (3-aminobutyl)(4-((3-aminobutyl)amino)butyl)carbamate trihydrochloride]",26647.6 ± 9522.1
4,"CC[C@H](CC[C@@H](C)[C@H]1CC[C@H]2[C@@H]3CC=C4C[C@@H](OC(=O)N(CCC5CC(N)C5)CCC5CC(N)C5)CC[C@]4(C)[C@H]3CC[C@]12C)C(C)C.Cl.Cl (stereo partly drawn) [SA186, (3S,8S,9S,10R,13R,14S,17R)-17-((2R,5R)-5-ethyl-6-methylheptan-2-yl)-10,13-dimethyl-2,3,4,7,8,9,10,11,12,13,14,15,16,17-tetradecahydro-1H-cyclopenta[a]phenanthren-3-yl bis(2-(3-aminocyclobutyl)ethyl)carbamate dihydrochloride]",39332.2 ± 8317.2
5,"CC[C@H](CC[C@@H](C)[C@H]1CC[C@H]2[C@@H]3CC=C4C[C@@H](SSCCC(=O)N(CCC5CC(N)C5)CCC5CC(N)C5)CC[C@]4(C)[C@H]3CC[C@]12C)C(C)C.Cl.Cl (stereo partly drawn) [SA187, N,N-bis(2-(3-aminocyclobutyl)ethyl)-3-(((3S,8S,9S,10R,13R,14S,17R)-17-((2R,5R)-5-ethyl-6-methylheptan-2-yl)-10,13-dimethyl-2,3,4,7,8,9,10,11,12,13,14,15,16,17-tetradecahydro-1H-cyclopenta[a]phenanthren-3-yl)disulfaneyl)propanamide dihydrochloride]",23953.8 ± 3430
